In patent publication US9416353B2, “Covalent tethering of functional groups to proteins and substrates therefor” (Promega Corporation, priority 2004, dated 2016):
Read-outs that look alike come from different tables or passages of the source.

Key:
[1] = molecular target: T1, DhaA.WT (Rhodococcus rhodochrous, UniProt P0A3G2)
[2] = molecular target: T1, DhaA.WT; format: binding
Source text: Then the proteins were resolved on SDS-PAGE.

T1 sequence (P0A3G2 whole entry): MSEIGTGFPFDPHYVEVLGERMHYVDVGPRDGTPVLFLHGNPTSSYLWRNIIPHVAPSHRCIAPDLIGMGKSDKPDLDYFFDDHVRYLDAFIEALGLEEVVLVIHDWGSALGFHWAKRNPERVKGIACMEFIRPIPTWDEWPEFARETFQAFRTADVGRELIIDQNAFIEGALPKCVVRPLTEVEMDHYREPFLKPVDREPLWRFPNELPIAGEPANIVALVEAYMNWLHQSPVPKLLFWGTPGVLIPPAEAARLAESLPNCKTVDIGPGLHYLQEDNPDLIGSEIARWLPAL

Molecule: O=C(NCCOCCOCCCCCCCl)c1ccc(-c2c3ccc(=O)cc-3oc3cc(O)ccc23)c(C(=O)O)c1 [N-{2-[2-(6-Chlorohexyloxy)-ethoxy]-ethyl}-fluorescein-5-amide]
- hydrolysis by DhaA.WT [1]: very efficiently hydrolyzed
- binding to DhaA.WT ([2]; 15 minutes at room temperature): not to DhaA.WT

Molecule: O=C(CCCC[C@@H]1SC[C@@H]2NC(=O)N[C@@H]21)NCCOCCOCCCCCCCl [biotin-C10H21NO2—Cl, N-{2-[2-(6-Chlorohexyloxy)-ethoxy]ethyl}-biotin-amide]
- binding to DhaA.WT ([2]; 15 minutes at room temperature): not to DhaA.WT

Molecule: N-{2-[2-(6-Chlorohexyloxy)-ethoxy]-ethyl}-tetramethylrhodamine-5-(and -6)-amide
- binding to DhaA.WT [2]: not to DhaA.WT
